# Results reported in PubChem BioAssay (Tox21).
# Inconclusive results, whose numbers are uncertain, are shown with a selection of clear calls. A potency beside an inconclusive call is a rough fit, not a confirmed value. Activity calls are given as the source filed them. Calls come from the whole dose curve; as a rule, active = well fitted curve in the direction sought with a large enough effect in the repeat runs; inconclusive = weak or mixed curves; inactive = no such curve, though single readings can be large; an effect the other way counts as inactive or inconclusive.
# Assay: qHTS RealTime-Glo MT Cell Viability Assay in HepG2 cells - 16 hour (AID 1224885)
# Conditions: RealTime-Glo luminescence; series mostly up to 76.8 µM
# How it was run: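 Tox21 10K library screened in qHTS format on HepG2 cells carrying RealTime-Glo reagents. Compounds were added after a 5 h preincubation, and the luminescent signal from continuous culture was measured repeatedly during 40 h treatment.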
# % is set by controls: 0 for no effect and ±100 for the full control effect; potency is the fitted concentration of half-maximal effect; tags give direction and shape of the fitted curve.
# Note: nearly all actives have a fitted effect of over 50% in size.
SMILES,Potency,"activity change, negative = cytotoxic"
CC(C)(C)c1csc(-c2cc3cc(OCc4ccccc4CC(=O)O)ccc3o2)n1,"inconclusive: 49 µM [cytotoxic, partial curve, poor fit]",–
CCCCCCCCCCCCCCN(C)C,–,inactive: -0.238% [at 15.8 µM]
O=C(O)c1ccccc1C(=O)O,inactive,–
CCCCCCCCCCCCCCC[C@H](O)[C@@H](N)CO,"inconclusive: 26.8 µM [cytotoxic, single point]",–
CCCNCCC,inactive,–
O=C(CCCN1CCN(c2ccc(F)cc2)CC1)NC1c2ccccc2CSc2ccccc21 (centres undefined),"inconclusive: 23.9 µM [cytotoxic, partial curve]",–
CC1=C(C(=O)O)N2C(=O)[C@@H](NC(=O)[C@H](N)C3=CCC=CC3)[C@H]2SC1,inactive,–

# Assay: qHTS RealTime-Glo MT Cell Viability Assay in HEK293 cells - 24 hour (AID 1224886)
# Conditions: RealTime-Glo luminescence; series mostly up to 76.8 µM
# How it was run: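 Luminescence generated by NanoLuc from substrate produced by living HEK293 cells served as the viability signal. Each value reflects the reading at its stated time point during continuous 40 h compound exposure at 37 C.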
row,SMILES,Potency
1,COC(=O)C1=C(C)NC(C)=C(C(=O)OCCN2CCN(C(c3ccccc3)c3ccccc3)CC2)C1c1cccc([N+](=O)[O-])c1 (centres undefined),"inconclusive: 21.3 µM [cytotoxic, partial curve, poor fit]"
2,O=C1[C@H]2CCCC[C@H]2C(=O)N1CCCCN1CCN(c2nsc3ccccc23)CC1,"inconclusive: 19 µM [cytotoxic, partial curve]"
3,O=C1c2c(O)ccc(Nc3ccc(CCO)cc3)c2C(=O)c2c([N+](=O)[O-])ccc(O)c21,"inconclusive: 43.6 µM [cytotoxic, partial curve]"
4,CCOC(=O)C1=C(C)NC(C)=C(C(=O)OC)C1c1cccc([N+](=O)[O-])c1 (centres undefined),"inconclusive: 23.9 µM [cytotoxic, single point]"
5,CCOC(=O)O[C@]1(C(=O)OCCl)CC[C@H]2[C@@H]3CCC4=CC(=O)C=C[C@]4(C)[C@H]3[C@@H](O)C[C@@]21C,"inconclusive: 9.52 µM [cytotoxic, partial curve, poor fit]"
6,CCCCC(=O)O[C@]1(C(=O)CO)[C@@H](C)C[C@H]2[C@@H]3CCC4=CC(=O)C=C[C@]4(C)[C@@]3(F)[C@@H](O)C[C@@]21C,"inconclusive: 49 µM [cytotoxic, partial curve]"
7,Fc1ccc([C@@H]2CCNC[C@H]2COc2ccc3c(c2)OCO3)cc1,"inconclusive: 26.8 µM [cytotoxic, single point]"
8,COc1cc2c(cc1OC)C(C(C(=O)N(CCc1ccc(OC)c(OC)c1OC)CCc1ccc(OC)c(OC)c1OC)c1ccccc1)=NCC2 (centres undefined),active: 3.38 µM
9,CCCCCCC[N+](CC)(CC)CCCCc1ccc(Cl)cc1,"inconclusive: 1.9 µM [cytotoxic, full curve]"
10,Cc1ccc(S(=O)(=O)C(I)I)cc1,active: 12.3 µM
11,CC[C@@H]([C@H](C)O)n1ncn(-c2ccc(N3CCN(c4ccc(OC[C@@H]5CO[C@@](Cn6cncn6)(c6ccc(F)cc6F)C5)cc4)CC3)cc2)c1=O,active: 2.68 µM
12,CC(=O)OCCC(C)CC(C)(C)C (centres undefined),inactive
13,CC(C)(C)c1csc(-c2cc3cc(OCc4ccccc4CC(=O)O)ccc3o2)n1,"inconclusive: 43.6 µM [cytotoxic, partial curve]"
14,CCCCCCCCCCCCCCN(C)C,"inconclusive: 13.2 µM [cytotoxic, single point]"
15,CCCCCCCCCCCCCCC[C@H](O)[C@@H](N)CO,active: 21.3 µM
16,CCCNCCC,inactive
17,O=C(CCCN1CCN(c2ccc(F)cc2)CC1)NC1c2ccccc2CSc2ccccc21 (centres undefined),active: 16.9 µM
